# Results reported in the supplement of paper PMC8728848.
# Some of the results follow.
# B1: Gal 4 (Mus musculus), P56470 (protein)
# chain: MAYVPAPGYQPTYNPTLPYYQPIPGGLNVGMSVYIQGVASEHMKRFFVNFVVGQDPGSDVAFHFNPRFDGWDKVVFNTLQGGKWGSEERKRSMPFKKGAAFELVFIVLAEHYKVVVNGNPFYEYGHRLPLQMVTHLQVDGDLQLQSINFIGGQPLRPQGPPMMPPYPGPGHCHQQLNSLPTMEGPPTFNPPVPYFGRLQGGLTARRTIIIKGYVPPTGKSFAINFKVGSSGDIALHINPRMGNGTVVRNSLLNGSWGSEEKKITHNPFGPGQFFDLSIRCGLDRFKVYANGQHLFDFAHRLSAFQRVDTLEIQGDVTLSYVQI
# Assays:
# Test in all cases: glycan array binding signal (z-score within array); higher = stronger binding
# Details in all cases: glycan notation: IUPAC condensed, linker removed
# [1] = target: Gal(b1-3)Gal(b1-4)GlcNAc(b1-2)Man(a1-3)[Gal(b1-3)Gal(b1-4)GlcNAc(b1-2)Man(a1-6)]Man(b1-4)GlcNAc(b1-4)GlcNAc
# How it was run: (§1)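 Negative Z-scores can be read as non-binding. The Z-score is calculated within each array and then averaged across arrays of one protein sequence at different concentrations or buffers and across linkers. Arrays, 3228 in all, were curated from the Consortium for Functional Glycomics database and kept only where the protein sequence was available.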
# Gal(b1-3)GalNAc = target: Gal(b1-3)GalNAc
# How it was run: as §1
# [2] = target: Gal(b1-3)GalNAc(a1-3)[Fuc(a1-2)]Gal(b1-4)Glc
# How it was run: as §1
# [3] = target: Gal(b1-3)GalNAc(a1-3)[Fuc(a1-2)]Gal(b1-4)GlcNAc
# How it was run: as §1
# Gal(b1-3)GalNAc(b1-3)Gal = target: Gal(b1-3)GalNAc(b1-3)Gal
# How it was run: as §1
# [4] = target: Gal(b1-3)GalNAc(b1-3)Gal(a1-4)Gal(b1-4)Glc
# How it was run: as §1
# [5] = target: Gal(b1-3)GalNAc(b1-4)Gal(b1-4)Glc
# How it was run: as §1
# [6] = target: Gal(b1-3)GalNAc(b1-4)[Neu5Ac(a2-3)]Gal(b1-4)Glc
# How it was run: as §1
# Gal(b1-3)GlcNAc = target: Gal(b1-3)GlcNAc
# How it was run: as §1
# [7] = target: Gal(b1-3)GlcNAc(a1-3)Gal(b1-4)GlcNAc
# How it was run: as §1
# [8] = target: Gal(b1-3)GlcNAc(a1-6)Gal(b1-4)GlcNAc
# How it was run: as §1
# Gal(b1-3)GlcNAc(b1-2)Man = target: Gal(b1-3)GlcNAc(b1-2)Man
# How it was run: as §1
# [9] = target: Gal(b1-3)GlcNAc(b1-2)Man(a1-3)[Gal(b1-3)GlcNAc(b1-2)Man(a1-6)]Man(b1-4)GlcNAc(b1-4)GlcNAc
# How it was run: as §1
# [10] = target: Gal(b1-3)GlcNAc(b1-2)Man(a1-3)[Gal(b1-3)GlcNAc(b1-2)Man(a1-6)]Man(b1-4)GlcNAc(b1-4)[Fuc(a1-6)]GlcNAc
# How it was run: as §1
# [11] = target: Gal(b1-3)GlcNAc(b1-2)Man(a1-3)[GlcNAc(b1-4)][Gal(b1-3)GlcNAc(b1-2)Man(a1-6)]Man(b1-4)GlcNAc(b1-4)GlcNAc
# How it was run: as §1
# [12] = target: Gal(b1-3)GlcNAc(b1-2)[Gal(b1-3)GlcNAc(b1-6)]Man(a1-6)[Gal(b1-3)GlcNAc(b1-2)Man(a1-3)]Man(b1-4)GlcNAc(b1-4)GlcNAc
# How it was run: as §1
# [13] = target: Gal(b1-3)GlcNAc(b1-3)Gal(b1-3)GlcNAc
# How it was run: as §1
# [14] = target: Gal(b1-3)GlcNAc(b1-3)Gal(b1-4)Glc
# How it was run: as §1
# [15] = target: Gal(b1-3)GlcNAc(b1-3)Gal(b1-4)GlcNAc
# How it was run: as §1
# [16] = target: Gal(b1-3)GlcNAc(b1-3)Gal(b1-4)GlcNAc(b1-2)Man(a1-3)[Gal(b1-3)GlcNAc(b1-3)Gal(b1-4)GlcNAc(b1-2)Man(a1-6)]Man(b1-4)GlcNAc(b1-4)GlcNAc
# How it was run: as §1
# [17] = target: Gal(b1-3)GlcNAc(b1-3)Gal(b1-4)GlcNAc(b1-2)[Gal(b1-3)GlcNAc(b1-3)Gal(b1-4)GlcNAc(b1-6)]Man(a1-6)[Gal(b1-3)GlcNAc(b1-3)Gal(b1-4)GlcNAc(b1-2)Man(a1-3)]Man(b1-4)GlcNAc(b1-4)[Fuc(a1-6)]GlcNAc
# How it was run: as §1
# [18] = target: Gal(b1-3)GlcNAc(b1-3)Gal(b1-4)GlcNAc(b1-3)Gal(b1-4)GlcNAc(b1-2)[Gal(b1-3)GlcNAc(b1-3)Gal(b1-4)GlcNAc(b1-3)Gal(b1-4)GlcNAc(b1-6)]Man(a1-6)[Gal(b1-3)GlcNAc(b1-3)Gal(b1-4)GlcNAc(b1-3)Gal(b1-4)GlcNAc(b1-2)Man(a1-3)]Man(b1-4)GlcNAc(b1-4)[Fuc(a1-6)]GlcNAc
# How it was run: as §1
# [19] = target: Gal(b1-3)GlcNAc(b1-3)Gal(b1-4)GlcNAc(b1-6)[Gal(b1-3)GlcNAc(b1-3)]Gal(b1-4)Glc
# How it was run: as §1
# [20] = target: Gal(b1-3)GlcNAc(b1-3)Gal(b1-4)[Fuc(a1-3)]GlcNAc(b1-6)[Gal(b1-3)GlcNAc(b1-3)]Gal(b1-4)Glc
# How it was run: as §1
# [21] = target: Gal(b1-3)GlcNAc(b1-3)GalNAc
# How it was run: as §1
# [22] = target: Gal(b1-3)GlcNAc(b1-6)Gal(b1-4)GlcNAc
# How it was run: as §1
# [23] = target: Gal(b1-3)GlcNAc(b1-6)GalNAc
# How it was run: as §1
# [24] = target: Gal(b1-3)GlcNAc(b1-6)[Gal(b1-3)]GalNAc
# How it was run: as §1
# Gal(b1-3)GlcNAc6S = target: Gal(b1-3)GlcNAc6S
# How it was run: as §1
# [25] = target: Gal(b1-3)[Fuc(a1-4)]GlcNAc
# How it was run: as §1
# [26] = target: Gal(b1-3)[Fuc(a1-4)]GlcNAc(b1-2)Man
# How it was run: as §1
# [27] = target: Gal(b1-3)[Fuc(a1-4)]GlcNAc(b1-2)Man(a1-3)[Gal(b1-3)[Fuc(a1-4)]GlcNAc(b1-2)Man(a1-6)]Man(b1-4)GlcNAc(b1-4)GlcNAc
# How it was run: as §1
# [28] = target: Gal(b1-3)[Fuc(a1-4)]GlcNAc(b1-2)Man(a1-3)[Gal(b1-3)[Fuc(a1-4)]GlcNAc(b1-2)Man(a1-6)]Man(b1-4)GlcNAc(b1-4)[Fuc(a1-6)]GlcNAc
# How it was run: as §1
# [29] = target: Gal(b1-3)[Fuc(a1-4)]GlcNAc(b1-3)Gal(b1-3)[Fuc(a1-4)]GlcNAc
# How it was run: as §1
# [30] = target: Gal(b1-3)[Fuc(a1-4)]GlcNAc(b1-3)Gal(b1-4)GlcNAc
# How it was run: as §1
# [31] = target: Gal(b1-3)[Fuc(a1-4)]GlcNAc(b1-3)Gal(b1-4)[Fuc(a1-3)]GlcNAc
# How it was run: as §1
# [32] = target: Gal(b1-3)[Fuc(a1-4)]GlcNAc(b1-6)GalNAc
# How it was run: as §1
# [33] = target: Gal(b1-3)[GlcNAc(b1-6)]GalNAc
# How it was run: as §1
binder,measurement,setting,value
B1,glycan array binding signal (z-score),[1],0.271
same,glycan array binding signal (z-score),Gal(b1-3)GalNAc,-0.204
same,glycan array binding signal (z-score),[2],4.95
same,glycan array binding signal (z-score),[3],3.84
same,glycan array binding signal (z-score),Gal(b1-3)GalNAc(b1-3)Gal,1.06
same,glycan array binding signal (z-score),[4],-0.219
same,glycan array binding signal (z-score),[5],0.059
same,glycan array binding signal (z-score),[6],-0.169
same,glycan array binding signal (z-score),Gal(b1-3)GlcNAc,-0.228
same,glycan array binding signal (z-score),[7],-0.242
same,glycan array binding signal (z-score),[8],-0.236
same,glycan array binding signal (z-score),Gal(b1-3)GlcNAc(b1-2)Man,-0.334
same,glycan array binding signal (z-score),[9],-0.181
same,glycan array binding signal (z-score),[10],-0.188
same,glycan array binding signal (z-score),[11],-0.308
same,glycan array binding signal (z-score),[12],-0.173
same,glycan array binding signal (z-score),[13],0.346
same,glycan array binding signal (z-score),[14],0.159
same,glycan array binding signal (z-score),[15],-0.148
same,glycan array binding signal (z-score),[16],-0.204
same,glycan array binding signal (z-score),[17],-0.277
same,glycan array binding signal (z-score),[18],-0.2
same,glycan array binding signal (z-score),[19],-0.135
same,glycan array binding signal (z-score),[20],-0.161
same,glycan array binding signal (z-score),[21],-0.241
same,glycan array binding signal (z-score),[22],-0.211
same,glycan array binding signal (z-score),[23],-0.316
same,glycan array binding signal (z-score),[24],-0.307
same,glycan array binding signal (z-score),Gal(b1-3)GlcNAc6S,3.23
same,glycan array binding signal (z-score),[25],-0.213
same,glycan array binding signal (z-score),[26],-0.296
same,glycan array binding signal (z-score),[27],-0.179
same,glycan array binding signal (z-score),[28],-0.221
same,glycan array binding signal (z-score),[29],-0.252
same,glycan array binding signal (z-score),[30],-0.242
same,glycan array binding signal (z-score),[31],-0.228
same,glycan array binding signal (z-score),[32],-0.318
same,glycan array binding signal (z-score),[33],-0.234
